Here are results for 62 sequences from the supplement of paper PMC10681739.

Over roughly 4,000 sequences, “arbitrary fluorescence units” has its median near 830; the highest 2% begin near 6,500. The list lacks most of the strong results.
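Further: Full-length recombinant human RUNX1 bound to double-stranded DNA microarray spots, detected with an Alexa488-labelled secondary antibody after the anti-RUNX1 primary, read as scanned spot fluorescence.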

The assay addresses RUNX1 (UniProt Q01196). The experiment in a line: RUNX1 binding intensity (PBM fluorescence), RUNX1 alone (arbitrary fluorescence units); higher = stronger binding. The following applies: RUNX1 concentration 2 nM; ETS1 concentration 0 nM. Here is the method: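 gcPBM on 36-bp genomic-derived probes (partner site mutated) containing one RUNX1 site and no ETS1 site. Recombinant human RUNX1 (2 nM) was incubated alone or with ETS1 (25 nM) and detected by anti-RUNX1 antibody fluorescence. Values are medians over 4 replicate spots (not normalised). The probes sit in constant array flanks that are not printed.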
Chain of UniProt Q01196 (Q01196 whole entry): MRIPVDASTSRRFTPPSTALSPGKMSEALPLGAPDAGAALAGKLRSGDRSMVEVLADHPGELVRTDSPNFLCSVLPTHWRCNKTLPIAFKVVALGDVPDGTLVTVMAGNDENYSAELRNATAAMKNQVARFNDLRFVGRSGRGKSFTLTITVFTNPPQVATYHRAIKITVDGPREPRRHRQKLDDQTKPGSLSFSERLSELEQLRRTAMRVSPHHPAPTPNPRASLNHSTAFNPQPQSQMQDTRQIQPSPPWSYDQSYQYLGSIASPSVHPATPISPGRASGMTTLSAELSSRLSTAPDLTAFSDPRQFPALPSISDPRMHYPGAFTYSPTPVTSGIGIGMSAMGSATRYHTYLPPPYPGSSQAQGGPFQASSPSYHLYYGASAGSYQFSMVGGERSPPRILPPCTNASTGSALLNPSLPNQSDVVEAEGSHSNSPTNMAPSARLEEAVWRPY
For the sequence ACCCTCTGTGGTTTAGGCTAGCGGGCTTTCAGCCTA, the RUNX1 binding intensity amounted to 2590. Take GTAAAAGAGGACGTAACACCTCCTTGCGGTTGAGAC: the RUNX1 binding intensity worked out at 1430. The result for GCAACTGAACAGTAAACTAAAAAACCACAACACTTA reads 1790; that for AGCCAGATCCTCCCTTAGGTCTGACCGCAGCTTAAC, 2150; that for GCTGTCCGTTCCCGAGATGTTAATGCGGGGTCTTGC, 824. The result for CGGCCCGCAGCAGAACAGCCAGCGCACCTCCTCCTC reads 945; that for AGGCTGTGGCGGCAGTGGTCGCGTTACCGCTTGTTT, 734; that for TGCTCAGCATGTTTAAAAACAAAACCACGCGTCTAT, 694. The result for TACCCTTGTGGGCCCCCCGGCGACGCTTGCTGCTCC reads 765; that for TGAAACCACATGAAACCAGAGTAGCCTCCGTACAGG, 1040; that for GGGTCTCCAGCAAGCCACTCACCACAAACTTTGACA, 1020.

Sequence CCTGTTCGGGGCTCCGTACACCCAGGCCCGCAGCTG returned an RUNX1 binding intensity of 853. The sequence CTCCTCCCCCACTGCCTATTTTTACCGCAGTTGCAC gave an RUNX1 binding intensity of 2110.

Consider GCCTCCGAGTCTATGGCAGCCTGTGGCTCACCACAC, for which the RUNX1 binding intensity was 873.

In the case of CCAGCAAGTTCAAACTGGGTGGAGCCCACCGCAGCT, the RUNX1 binding intensity was 702. The result for GATTTCATGTTTGAGGTTTAACTTCAGTAGCTTGGG reads 832; that for CGGCCGCGGTTTAGGGCGGCCCCGTAAGCGGGGCGC, 1350; that for CTGCCCACCGAAAACGATGGCGCGAGGCCGCAGAGC, 823. ACAAGCCAGTTCCCATTCTTGTGGCTGTAGAGGGGA gave an RUNX1 binding intensity of 852.

As for GCGGGAGGCCTCCTCACATTACCGCTCCGCGTAAGT, the RUNX1 binding intensity worked out at 726. Regarding CTGTGGTTGGGCTGTGTAGGCGCGGATTGCCTGGCT, the RUNX1 binding intensity turned out to be 906. The result for TGGTGTGAGGTGTGGCTTTGTCTTCATGAACGGTGT reads 761; that for GACATCTTCAGGTTGCTACAGGTTACGGCGGTTGCT, 784.

Take CTTCAGGAGACCACAGTTCTCAGGCTTCGTCCCTTC: the RUNX1 binding intensity is 956.

In turn, GAGCAGGGAGCACCCCCAGCACAGGCCTGCGGTGAG had an RUNX1 binding intensity of 781. Take CGGCAGTGGGTTGGAGGTGTGGCGGGAATGGTTGGG: the RUNX1 binding intensity was determined as 910.

In turn, GCACCAGAGCAAGCTGAGGAGGAGGTGCGGTGGCTG had an RUNX1 binding intensity of 720. The result for AATTCCCAGCAAGCACTCGGCAGCCACAAACTGATG reads 823. In the case of GTGCAGGCCGTAAGGAAAAGGGTTGTGGGGCTCATT, the RUNX1 binding intensity is 789.

GGTTTCGCTCCCGGGTTAGGCGGCCGCAGAAGCGTA showed an RUNX1 binding intensity of 808. The result for ACTCCACCTACCCACAGAACGCACTGCCTCAGAAGC reads 1350; that for ACTTCTGAGAAAACCTCAGCGCTTCATGGAGAAACT, 919.

The sequence CCAGAACCCGGGACCACAGCACGGAGACGGTCCGGG came in with an RUNX1 binding intensity of 710. The result for CAAACCACATGCCCACCTGGGGGACATGAAGAGGAC reads 870.

For the sequence GTAACCACGGCGGCCGCCACGCCCCGTTGCCTGGTC, the RUNX1 binding intensity came out at 970.

Consider TGGCCAGGGAGCCACTCGATTGCCGGCGCCCGCAGC, for which the RUNX1 binding intensity is 703. Sequence CAAAACACCTGTGGTTTTGCAAAAGGAGGTGATTTC returned an RUNX1 binding intensity of 1870.

GGTGTTACACCGCAGCCTTCCATGAAGGGGCAGGGG gave an RUNX1 binding intensity of 1220. In turn, CACTCCCCCATTCAGGCTGCAGGTTGAGGTTTGGAA showed an RUNX1 binding intensity of 821.

GACCGAGAGGACGCAGCAAGGATCCTGCGGTTCCAG had an RUNX1 binding intensity of 897.

As for GTGTTCAGACGGAGGCGTTATTCAGTGGTCAGAGCA, the RUNX1 binding intensity amounted to 773.

GCTCCAACCCGCGCACTTTCGGAGAACGGCAAGGGG yielded an RUNX1 binding intensity of 885. The result for TGGAGCCAAGCAGCCACAAACCCGGCATAGCCTGCT reads 734; that for ACCTTCGCCGCGGTCCCCAGCCTCTTCATGTCCCGG, 1210.

The sequence TGCCAGATGGAACGCCTGGCACAGCCACCGCTCGCT returned an RUNX1 binding intensity of 686. The result for TTGGTGGTTAGACCTGGGGAGGGGCAGCATGTGGCA reads 815; that for GGAAAAGGCAGTGGCTTTGACTTGCGGGCAGGGAGA, 771; that for TCCACGGTAACCGCGTTCGCCGTAAGGCCGCGACCC, 928. CGGCTCCTGCGGGCCCTCACACCCTGAAACACCGCT returned an RUNX1 binding intensity of 1810. The result for CCTTCCTTGCTGCTGTGTACGTTGTGGTCACAGCAC reads 1020; that for CACGGTCTTTACCGCTCAGCTTCTCGGAGTCCGCGC, 797; that for GGAGCGCGGTGGGGACGTTTAAAGGCAATTTACAAT, 711. The result for AGCTTTCCATCAGGGTCCCTGTCCGTGCGGTGCAGC reads 766; that for TCCTAGCCATCTCCTATCCACCCTGTGGCTAATTTG, 1060; that for AGCAACCGCCGTAACCTGTAGCAACCTGAAGATGTC, 1080. The result for GAACTCCCGGGACCACGTGACGTAGAACCACAACAA reads 897; that for GAGGGGAGCAAGGCCTGGCTCGGGCTGGGCCGCAGC, 654; that for GGTCTGCGGCGCGCGGGATGCTGGGCAATGTAGTTT, 784. As for CATGAATCCCCACACACAACATGAAGGGGGTGTGGC, the RUNX1 binding intensity was determined as 738. The result for TGAATATTCTTGCGCACGTACCCACATGGCTCACTT reads 761; that for GGCATGAAGGAATGGCGGGAACGGGGCCCGCAGGGC, 679; that for GGGCTGCGGCGCTGGAACTGGACCAATCCAGAATCG, 687.
